# Substitutions are numbered along the chain they refer to; changes in the protein carry UniProt numbers. The list shows a part of the results.
# B1: ACGCUAG (DNA:RNA)
# RNA: GGGAGACCGGAAUUCAGAUUGUCCACGCUAGUUAAAUCCCGUCGUAGCCACCA
# DNA 1: CAATCTGAATTCCGGTCTCCC
# DNA 2: TGGTGGCTACGACGGGATT
# B2: UAGCUAC (DNA:RNA)
# RNA: B1 RNA with A25U, C26A, G31C
# DNA 1: CAATCTGAATTCCGGTCTCCC
# DNA 2: TGGTGGCTACGACGGGATT
# B3: UCAACGG (DNA:RNA)
# RNA: B1 RNA with A25U, G27A, C28A, U29C, A30G
# DNA 1: CAATCTGAATTCCGGTCTCCC
# DNA 2: TGGTGGCTACGACGGGATT
# B4: ACUCCGC (DNA:RNA)
# RNA: B1 RNA with G27U, U29C, A30G, G31C
# DNA 1: CAATCTGAATTCCGGTCTCCC
# DNA 2: TGGTGGCTACGACGGGATT
# B5: CCACCAU (DNA:RNA)
# RNA: B1 RNA with A25C, G27A, U29C, G31U
# DNA 1: CAATCTGAATTCCGGTCTCCC
# DNA 2: TGGTGGCTACGACGGGATT
# B6: CAAGGAG (DNA:RNA)
# RNA: B1 RNA with A25C, C26A, G27A, C28G, U29G
# DNA 1: CAATCTGAATTCCGGTCTCCC
# DNA 2: TGGTGGCTACGACGGGATT
# B7: AGAUGCG (DNA:RNA)
# RNA: B1 RNA with C26G, G27A, C28U, U29G, A30C
# DNA 1: CAATCTGAATTCCGGTCTCCC
# DNA 2: TGGTGGCTACGACGGGATT
# B8: GGCCUUA (DNA:RNA)
# RNA: B1 RNA with A25G, C26G, G27C, A30U, G31A
# DNA 1: CAATCTGAATTCCGGTCTCCC
# DNA 2: TGGTGGCTACGACGGGATT
# B9: GAGACAG (DNA:RNA)
# RNA: B1 RNA with A25G, C26A, C28A, U29C
# DNA 1: CAATCTGAATTCCGGTCTCCC
# DNA 2: TGGTGGCTACGACGGGATT
# B10: CAAGCAA (DNA:RNA)
# RNA: B1 RNA with A25C, C26A, G27A, C28G, U29C, G31A
# DNA 1: CAATCTGAATTCCGGTCTCCC
# DNA 2: TGGTGGCTACGACGGGATT
# B11: CCUUGAC (DNA:RNA)
# RNA: B1 RNA with A25C, G27U, C28U, U29G, G31C
# DNA 1: CAATCTGAATTCCGGTCTCCC
# DNA 2: TGGTGGCTACGACGGGATT
# B12: GCCUUCA (DNA:RNA)
# RNA: B1 RNA with A25G, G27C, C28U, A30C, G31A
# DNA 1: CAATCTGAATTCCGGTCTCCC
# DNA 2: TGGTGGCTACGACGGGATT
# B13: CCCCCUG (DNA:RNA)
# RNA: B1 RNA with A25C, G27C, U29C, A30U
# DNA 1: CAATCTGAATTCCGGTCTCCC
# DNA 2: TGGTGGCTACGACGGGATT
# B14: CGGUGAA (DNA:RNA)
# RNA: B1 RNA with A25C, C26G, C28U, U29G, G31A
# DNA 1: CAATCTGAATTCCGGTCTCCC
# DNA 2: TGGTGGCTACGACGGGATT
# B15: GUGUCCG (DNA:RNA)
# RNA: B1 RNA with A25G, C26U, C28U, U29C, A30C
# DNA 1: CAATCTGAATTCCGGTCTCCC
# DNA 2: TGGTGGCTACGACGGGATT
# B16: GCGCCUC (DNA:RNA)
# RNA: B1 RNA with A25G, U29C, A30U, G31C
# DNA 1: CAATCTGAATTCCGGTCTCCC
# DNA 2: TGGTGGCTACGACGGGATT
# B17: AAAUGAC (DNA:RNA)
# RNA: B1 RNA with C26A, G27A, C28U, U29G, G31C
# DNA 1: CAATCTGAATTCCGGTCTCCC
# DNA 2: TGGTGGCTACGACGGGATT
# B18: ACCAUCU (DNA:RNA)
# RNA: B1 RNA with G27C, C28A, A30C, G31U
# DNA 1: CAATCTGAATTCCGGTCTCCC
# DNA 2: TGGTGGCTACGACGGGATT
# B19: CUUCUAG (DNA:RNA)
# RNA: B1 RNA with A25C, C26U, G27U
# DNA 1: CAATCTGAATTCCGGTCTCCC
# DNA 2: TGGTGGCTACGACGGGATT
# B20: AUUAACU (DNA:RNA)
# RNA: B1 RNA with C26U, G27U, C28A, U29A, A30C, G31U
# DNA 1: CAATCTGAATTCCGGTCTCCC
# DNA 2: TGGTGGCTACGACGGGATT
# B21: AGUGAAC (DNA:RNA)
# RNA: B1 RNA with C26G, G27U, C28G, U29A, G31C
# DNA 1: CAATCTGAATTCCGGTCTCCC
# DNA 2: TGGTGGCTACGACGGGATT
# B22: UGACCGC (DNA:RNA)
# RNA: B1 RNA with A25U, C26G, G27A, U29C, A30G, G31C
# DNA 1: CAATCTGAATTCCGGTCTCCC
# DNA 2: TGGTGGCTACGACGGGATT
# B23: AAUUGAG (DNA:RNA)
# RNA: B1 RNA with C26A, G27U, C28U, U29G
# DNA 1: CAATCTGAATTCCGGTCTCCC
# DNA 2: TGGTGGCTACGACGGGATT
# B24: UCUAGCC (DNA:RNA)
# RNA: B1 RNA with A25U, G27U, C28A, U29G, A30C, G31C
# DNA 1: CAATCTGAATTCCGGTCTCCC
# DNA 2: TGGTGGCTACGACGGGATT
# B25: GGUGGUC (DNA:RNA)
# RNA: GGGAGACCGGAAUUCAGAUUGUCCGGUGGUCUUAAAUCCCGUCGUAGCCACCA
# DNA 1: CAATCTGAATTCCGGTCTCCC
# DNA 2: TGGTGGCTACGACGGGATT
# B26: CACUACG (DNA:RNA)
# RNA: B1 RNA with A25C, C26A, G27C, C28U, U29A, A30C
# DNA 1: CAATCTGAATTCCGGTCTCCC
# DNA 2: TGGTGGCTACGACGGGATT
# B27: UCCUAUA (DNA:RNA)
# RNA: B1 RNA with A25U, G27C, C28U, U29A, A30U, G31A
# DNA 1: CAATCTGAATTCCGGTCTCCC
# DNA 2: TGGTGGCTACGACGGGATT
# B28: GAACUUA (DNA:RNA)
# RNA: B1 RNA with A25G, C26A, G27A, A30U, G31A
# DNA 1: CAATCTGAATTCCGGTCTCCC
# DNA 2: TGGTGGCTACGACGGGATT
# B29: CGGGCGA (DNA:RNA)
# RNA: B25 RNA with G25C, U27G, G29C, U30G, C31A
# DNA 1: CAATCTGAATTCCGGTCTCCC
# DNA 2: TGGTGGCTACGACGGGATT
# B30: GACGAUG (DNA:RNA)
# RNA: B25 RNA with G26A, U27C, G29A, C31G
# DNA 1: CAATCTGAATTCCGGTCTCCC
# DNA 2: TGGTGGCTACGACGGGATT
# B31: AUCUCGG (DNA:RNA)
# RNA: B1 RNA with C26U, G27C, C28U, U29C, A30G
# DNA 1: CAATCTGAATTCCGGTCTCCC
# DNA 2: TGGTGGCTACGACGGGATT
# Molecular target: T1, RBFOX1 RRM RbFoxmut (Fox-RRM*) (Homo sapiens, UniProt Q9NWB1 109-208, R118D;E147R;N151S;E152T)
# T1 sequence: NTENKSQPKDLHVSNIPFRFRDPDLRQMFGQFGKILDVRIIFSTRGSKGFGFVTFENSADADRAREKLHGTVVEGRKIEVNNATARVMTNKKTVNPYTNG
# Assay: EMSA; HiTS-Eq, 1 nM pool, 10 min; buffer printed only for the single-RNA assays: 10 mM Tris pH 7.5, 150 mM NaCl, 3.4 mM EDTA, 0.001% NP-40, 30 C
# Details: tags: His6 N-terminal (pET28a); label: 5' 32P
# Method in brief: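 A pool of RNA with 7 randomized nucleotides, 5′-radiolabelled and with DNA-annealed flanks, was equilibrated at 1 nM for 10 min in 50 µL with purified RbFox RRM, wild type or mutant, across increasing protein concentrations. Free RNA was separated by 8% native PAGE, excised, reverse-transcribed, barcoded by PCR and sequenced. Relative association constants were obtained from read-count changes of each RNA species versus the control reaction and normalised to the cognate motif.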
row,Binder,binding signal
1,B1,0.108 KA relative to UGCAUGU
2,B2,0.104 KA relative to UGCAUGU
3,B3,0.061 KA relative to UGCAUGU
4,B4,0.0838 KA relative to UGCAUGU
5,B5,0.0986 KA relative to UGCAUGU
6,B6,0.112 KA relative to UGCAUGU
7,B7,0.137 KA relative to UGCAUGU
8,B8,0.0924 KA relative to UGCAUGU
9,B9,0.0457 KA relative to UGCAUGU
10,B10,0.0563 KA relative to UGCAUGU
11,B11,0.0825 KA relative to UGCAUGU
12,B12,0.146 KA relative to UGCAUGU
13,B13,0.121 KA relative to UGCAUGU
14,B14,0.116 KA relative to UGCAUGU
15,B15,0.216 KA relative to UGCAUGU
16,B16,0.0575 KA relative to UGCAUGU

row,Binder,binding signal
1,B17,0.0561 KA relative to UGCAUGU
2,B18,0.0489 KA relative to UGCAUGU
3,B19,0.146 KA relative to UGCAUGU
4,B20,0.112 KA relative to UGCAUGU
5,B21,0.104 KA relative to UGCAUGU
6,B22,0.0732 KA relative to UGCAUGU
7,B23,0.102 KA relative to UGCAUGU
8,B24,0.104 KA relative to UGCAUGU
9,B25,0.18 KA relative to UGCAUGU
10,B26,0.118 KA relative to UGCAUGU
11,B27,0.113 KA relative to UGCAUGU
12,B28,0.0792 KA relative to UGCAUGU
13,B29,0.0794 KA relative to UGCAUGU
14,B30,0.0965 KA relative to UGCAUGU
15,B31,0.0955 KA relative to UGCAUGU
